The text below walks through data of PubChem BioAssay AID1508624 (National Center for Advancing Translational Sciences (NCATS), 2021).

The campaign covered roughly 48,000 compounds. About 120 (0.25%) were called active. Not shown: some 4% with an inconclusive outcome. Calls come from the whole dose curve; as a rule, active = well fitted activation curve with a large enough effect; inconclusive = small, poorly fitted or top-dose-only effect, or another doubt; inactive = no such curve, though single readings can be large or run the other way. The list shows a part of the results.

A short description of the assay: Primary qHTS for Identification of Small Molecule Activators of Huntingtin-Antisense Promoter Activity. Note: nearly all actives have a fitted effect of over 55% in size. As to conditions: HEK293 HTT-AS promoter firefly luciferase reporter (activity 0% = vehicle and -100% = no light), 24 h; series mostly up to 57.5 µM; activity change, positive = activation: at the top concentration. The procedure, abridged:
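Quantitative HTS used concentration series of up to 57.5 uM final on HEK293 luciferase reporter cells, 24 h at 37 degrees C. Readout was Dual-Glo firefly luminescence.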
Take `O=C(CSc1nc(=O)[nH]c2c1CCCC2)NCc1ccc(F)cc1`: the “activity change, positive = activation” value was inactive: -0.815%.

Turning to `N#Cc1ccccc1Cn1cnc2nc3c(cc2c1=O)CCCC3`, the “activity change, positive = activation” value was inactive: 5.22%. To `CCc1nc(C)cn1S(=O)(=O)c1ccc(Cl)c(Cl)c1OC` belongs inactive: -89.3%; to `CCCOc1ccc(C(=O)Nc2ccc(NC(=O)c3ccccc3)c(C)c2)cc1`, inactive: -8.36%; to `Cc1cccc(CC(=O)NCc2nc3cccnc3n2Cc2ccc(F)cc2)c1`, inactive: -15.7%. To `CCc1cc(=O)[nH]c(SCc2nc(-c3ccccc3)no2)n1` belongs inactive: -31.1%; to `Cc1nnc2c(N3CCN(c4ccccc4F)CC3)nc3ccc(C(=O)c4ccccc4)cc3n12`, inactive: -1.22%. For `Cc1cccc(C(=O)NC2=NC(c3ccc(Cl)cc3)CC(=O)N2)c1` (configuration not stated), the “activity change, positive = activation” value is inactive: -12.7%. As to `COc1ccc(NS(=O)(=O)c2ccc3[nH]c4c(c3c2)CCCCC4)cc1`, the “activity change, positive = activation” value was inactive: -6%.

Regarding `CC(C)c1ccc2occ(CC(=O)N(Cc3ccc(F)cc3)C3CCS(=O)(=O)C3)c2c1` (configuration not stated), the “activity change, positive = activation” value was inactive: -44.5%. As to `COc1ccc(CCNC(=O)c2ccc3c(c2)ncn3-c2ccc(C(C)C)cc2)cc1OC`, the “activity change, positive = activation” value is inactive: -33.8%. In the case of `O=C(Nc1ccccc1)N(Cc1cccc(Cl)c1)c1ccccn1`, the “activity change, positive = activation” value was inactive: -8.13%. On to `CC(=O)c1ccc(N2CCN(C(=O)Nc3ccc(C(C)C)cc3)CC2)cc1`, for which the “activity change, positive = activation” value was inactive: -58.5%. With `CCCCN1C[C@H](O)[C@@H](O)[C@H](O)[C@H]1CO` the figure was inactive: -8.49%. With `Cn1c2ccccc2c2cnn(CC(=O)NCCCN3CCN(c4ccccc4F)CC3)c(=O)c21` the figure was inactive: -11.4%; with `COc1ccc(NC(=O)c2ccco2)cc1NC(=O)c1c(OC)cccc1OC`, inactive: -5.52%; with `COc1ccc(NC(=O)CCc2nnc3n(Cc4ccc(C)cc4)c(=O)c4ccccc4n23)cc1`, inactive: -16.2%. On to `CCc1ccccc1NC(=O)Cn1ccn(Cc2ccccc2)c(=O)c1=O`, for which the “activity change, positive = activation” value was inactive: -15.1%.

On to `CC1CCCCN1C(=O)CCS(=O)(=O)c1cc2c(cc1Cl)NC(=O)CO2` (configuration not stated), for which the “activity change, positive = activation” value was inactive: -8.37%. With `COc1cccc(CNCCCSc2nnnn2C)c1OC`, the “activity change, positive = activation” value is inactive: 3.48%. With `CCS(=O)(=O)c1nc(S(=O)(=O)c2ccc(C)cc2)c(NC)s1` the figure was inactive: -17.8%; with `Cc1cccc(C(=O)N2CCc3cc(CNS(=O)(=O)c4ccc(F)c(Cl)c4)ccc32)c1`, inactive: -22.3%. To `CCC(=O)N1CCc2cc(S(=O)(=O)Nc3cc(C)ccc3OC)ccc21` belongs inactive: -23.4%; to `Cc1ccc(-n2c(SCC(=O)c3ccccc3)nc3c([nH]c4ccccc43)c2=O)cc1`, inactive: -14.5%.

With `COc1ccc(-c2csc3ncnc(Nc4cc(OC)cc(OC)c4)c23)cc1`, the “activity change, positive = activation” value was inactive: -44.9%.

For the compound `c1ccc2c(c1)CCCC2C1=NCCN1` (configuration not stated), the “activity change, positive = activation” value was inactive: -1.8%. As to `CC(C)C(=O)Nc1ccc2nc(SCC(=O)N3CCc4ccccc43)sc2c1`, the “activity change, positive = activation” value is inactive: -48.4%.

As to `COc1ccccc1CC(=O)Nc1ccc2nc(Nc3cccc(Cl)c3)cc(C)c2c1`, the “activity change, positive = activation” value is inactive: -31.2%. For the compound `COc1ccccc1CNC(=O)c1ccc2c(c1)N(Cc1c(F)cccc1Cl)C(=O)CS2`, the “activity change, positive = activation” value is inactive: -37.3%. To `Cc1cc(C)cc(NC(=O)c2cc(S(=O)(=O)N3CCc4ccccc43)cn2C)c1` belongs inactive: -27.4%; to `O=C(Nc1ccc2oc(-c3cccc(F)c3)nc2c1)c1ccc2ccccc2c1`, inactive: 7.23%; to `CC(C)c1ccc(NC(=O)Cn2cc(S(=O)(=O)Cc3ccccc3Cl)c3ccccc32)cc1`, inactive: -45.7%. Regarding `COc1cccc(NC(=O)Cn2c(=O)n(CCCCC(=O)NCc3ccccc3Cl)c(=O)c3ccccc32)c1`, the “activity change, positive = activation” value was inactive: -24.6%.

`CCCCC(Sc1nc2cc3c(cc2c(=O)n1CCCC(=O)NCc1ccc2c(c1)OCO2)OCO3)C(=O)OCC` (configuration not stated): the “activity change, positive = activation” value was inactive: -14.5%.

In the case of `O=C(CSc1ncc(S(=O)(=O)c2ccc(Br)cc2)c(=O)[nH]1)Nc1ccc2c(c1)OCCO2`, the “activity change, positive = activation” value is inactive: -4.75%. To `CCOc1ccccc1N1CCN(S(=O)(=O)c2ccc(C3CCCCC3)cc2)CC1` belongs inactive: 16.3%; to `CC1CCN(C(=O)CSc2nc3ccccc3nc2Cc2ccccc2)CC1`, inactive: -28.6%; to `CCOc1ccc(CN2C(=O)c3ccccc3C2C(=O)NCCc2ccc(OC)c(OC)c2)cc1` (configuration not stated), inactive: -14%. With `COc1ccccc1NC(=O)C1=C(C)Nc2ncnn2C1c1cccn1C` (configuration not stated) the figure was inactive: -5.8%. For the compound `CCOC(=O)c1c(S(=O)(=O)N2CCC(C(=O)Nc3ccc(F)cc3F)CC2)c(C)n(C)c1C`, the “activity change, positive = activation” value was inactive: -11.4%.

For `COc1ccc(CNC(=O)Cc2c(C)c3cc4c(C)coc4c(C)c3oc2=O)cc1OC`, the “activity change, positive = activation” value was inactive: -7.62%.

For the compound `Cc1c(C)n(Cc2ccc(-c3ccccc3C(=O)O)cc2)c2ccc(C(=O)N[C@@H](C)c3ccc([N+](=O)[O-])cc3)cc12`, the “activity change, positive = activation” value is inactive: -28.3%. With `CCOc1ccc(CNS(=O)(=O)c2ccc3c(c2)CCCN3C(C)=O)cc1` the figure was inactive: -22.9%. To `Cc1ccc(C)c(NC(=O)C2CCN(c3cc(C)nc4c(-c5ccc(Cl)cc5)c(C)nn34)CC2)c1` belongs inactive: 1.78%; to `COc1cccc(NC(=O)Cn2cc(C(=O)c3ccco3)c3ccccc32)c1`, inactive: -16.5%. With `COc1ccc(-n2cc(C(=O)Oc3cc(C)cc(C)c3)c3ccccc3c2=O)cc1` the figure was inactive: -10.8%; with `COc1cccc(C(=O)Oc2c(Sc3ccc(C)cc3)c(C)nn2C(C)(C)C)c1OC`, inactive: -42.9%.
